Assay results reported in PubChem BioAssay AID1345083 (National Center for Advancing Translational Sciences (NCATS), 2018).
About 6,200 (6.6%) of roughly 94,000 compounds were called active. The inconclusive results got no clear call from the source; some entries with a clear call stand among them for comparison. The call rests on the fitted dose curve; in most records, active means well fitted inhibition curve with a large enough effect; inconclusive means small, poorly fitted or top-dose-only effect; inactive means flat fitted curve, though single readings scatter. Potencies beside an inconclusive call are fits to weak or partial responses and may not hold up.

assay: Cytotoxic Profiling in HEK 293 Cell Line of Diverse Libraries Using Quantitative High-Throughput Screening; conditions: HEK 293 viability, ATP luminescence (CellTiter-Glo), 48-72 h; series mostly up to 115 µM; further: nearly all actives have a fitted effect of over 60% in size
Outline: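 Viability of HEK 293 cells, plated at 250 cells/well, was judged by cellular ATP after compound treatment for 48 or 72 hr. Luminescence was imaged 10 min after CellTiter-Glo addition at room temperature.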
Potency means the concentration at half of the fitted maximal effect; tags describe the fitted curve by direction and shape.

Row | SMILES | Potency
1 | CN(C)CCNC(=O)C1(CCO)CC12CCOCC2 (stereo not given) | inactive
2 | O=C(CNC(=O)c1ccc(-c2cccc(C(F)(F)F)c2)cc1)NCC(F)(F)F | inconclusive: 79.4 µM [inhibitor, single point]
3 | Cc1ccc(CC(=O)N2CCc3cn(C)c4cccc(c34)C2)cc1 | active: 79.4 µM
4 | O=C(Nc1cccc(-c2ccco2)c1)C1CCN(C(=O)NCc2ccco2)CC1 | inconclusive: 56.2 µM [inhibitor, partial curve, poor fit]
5 | Cc1ccccc1-c1noc(CCCC(=O)N2CCn3nc(CO)cc3C2)n1 | inconclusive: 50.1 µM [inhibitor, partial curve, poor fit]
6 | CN(Cc1cccs1)Cc1cccn1C | inconclusive: 251 µM [inhibitor, partial curve, poor fit]
7 | COc1ccccc1-n1c(=O)c(C(=O)N2CCN(C(=O)C3CC3)CC2)nc2cccnc21 | inconclusive: 89.1 µM [inhibitor, single point]
8 | CCCNC(=O)Cc1csc2nc(C)c(-c3cc(C)n(-c4ccc(C(C)C)cc4)n3)c(=O)n12 | inactive
9 | CC(C)CNC(=O)CN1CN(c2ccccc2)C2(CCN(C(=O)NC3CCCCC3)CC2)C1=O | inactive
10 | O=C(Cc1cccc(F)c1)N1CCCC(Cc2nncn2-c2ccccc2)C1 (stereo not given) | inactive
11 | CC(C)(Oc1nn(Cc2cccc(Cl)c2)c2ccccc12)C(=O)N1CCOCC1 | active: 89.1 µM
12 | COCCNc1ncccc1-c1noc([C@@H]2CCCN2Cc2ccccc2OC)n1 | inconclusive: 70.8 µM [inhibitor, partial curve, poor fit]
13 | CCCN(Cc1ccco1)C(=O)C1CCC(=O)N(CC2CCCCC2)C1 (stereo not given) | inconclusive: 56.2 µM [inhibitor, partial curve, poor fit]
14 | Cc1ccc(Nc2ccnc(N3CCN(C(=O)C(C)(C)C)CC3)n2)cc1 | inconclusive: 22.4 µM [inhibitor, partial curve, poor fit]
15 | CCn1ccc(C(=O)N2CCC3(CC2)NCCc2c3[nH]c3ccccc23)n1 | inconclusive: 79.4 µM [inhibitor, partial curve, poor fit]
16 | COc1cc(-c2onc(C)c2C(=O)NCCc2cccs2)cc(OC)c1OC | inactive
17 | CCN(C1CCOCC1)C1CN(C(=O)c2ccccn2)C1 | inactive
18 | COCC1CN(Cc2ccccc2F)CC12CCNCC2 (stereo not given) | inactive
19 | Cc1ccc(-c2cccc(CN3CCCC3C(=O)N3CCCC(C)C3)c2)cc1Cl (stereo not given) | inconclusive: 31.6 µM [inhibitor, full curve, poor fit]
20 | COc1ccc(-c2nc(-c3ccccc3)nc3c2CN(C(=O)c2ccc(C(F)(F)F)cc2)CC3)cc1 | inconclusive: 79.4 µM [inhibitor, partial curve, poor fit]
21 | CCc1ccc(CNC(=O)CCc2conc2-c2cccc(C)c2)cc1 | inconclusive: 89.1 µM [inhibitor, single point]
22 | COCCNC(=O)c1ccc2oc(-c3ccnc(Cl)c3)nc2c1 | inconclusive: 28.2 µM [inhibitor, partial curve, poor fit]
23 | O=C(Nc1cc(F)cc(F)c1)N1CCCC2(C1)Nc1cccnc1NC2=NC1CCCC1 (stereo not given) | active: 39.8 µM
24 | Cc1ncc2c(c1CNC(=O)Cc1ccc(C(F)(F)F)cc1)CCNC2 | inconclusive: 89.1 µM [inhibitor, single point]

Row | SMILES | Potency
25 | Fc1ccc(/C=C/CN2CCC(n3cc(C4CCCC4)nn3)CC2)cc1 | inconclusive: 44.7 µM [inhibitor, partial curve, poor fit]
26 | CCOc1ccccc1C(=O)Nc1cccc(-c2nnc3n2CCCC3)c1 | inconclusive: 35.5 µM [inhibitor, partial curve, poor fit]
27 | CC(C)NC(=O)N1CCN(c2nccc(Nc3ccccc3F)n2)CC1 | active: 25.1 µM
28 | O=C1OCCCN1CCNc1ccc(-c2nc(-c3ccccc3F)no2)cn1 | inconclusive: 44.7 µM [inhibitor, partial curve, poor fit]
29 | CC1(c2cccnc2)N(Cc2ccccc2)C(=O)OC12CCN(C(=O)c1cnccn1)CC2 (stereo not given) | inactive
30 | Cc1nnc2ccc(N3CCCN(C(=O)Nc4ccc(Cl)cc4)CC3)nn12 | inactive
31 | COCC(=O)N1CCN(C(=O)c2ccc(-c3ccc(OC)nn3)cc2)CC1 | inactive
32 | O=C(Nc1cccc(F)c1)c1cnc2c(c1)N(C(=O)Cc1cccc(C(F)(F)F)c1)CCC2 | inconclusive: 50.1 µM [inhibitor, partial curve, poor fit]
33 | O=C(NCc1cccc(C(F)(F)F)c1)c1cn2cc(-c3ccccc3)sc2n1 | active: 44.7 µM
34 | O=C(NC1CCCC1)C1CCCN1C(=O)c1cccc(-c2ccccn2)c1 (stereo not given) | inactive
35 | c1ccc(-c2cc3c(cn2)NCCN(CC2CC2)C3)cc1 | inactive
36 | COCC(=O)N[C@H]1C[C@H]2C(=O)Nc3ccc(-c4ccsc4)cc3C(=O)N2C1 | inactive
37 | CC(NC(=O)COc1ccc(F)cc1)C(=O)N1CCN(c2ccccn2)CC1 (stereo not given) | inactive
38 | CN1CCCCC1COc1ccc2c(n1)CN(Cc1ccccc1F)C(=O)CO2 (stereo not given) | inconclusive: 100 µM [inhibitor, partial curve, poor fit]
39 | CCN(CC)C[C@H]1O[C@H](Cc2cc(-c3ccccc3)on2)CC[C@@H]1O | inactive
40 | CNC(=O)c1cccc2c1CCN2C(=O)Nc1ccc(F)cc1 | inactive
41 | Cc1ccc(-n2ncc3c2CC(C)(C)CC3NS(=O)(=O)c2cn(C)cn2)cc1 (stereo not given) | inconclusive: 79.4 µM [inhibitor, single point]
42 | O=C1NC[C@H]2CN(Cc3ccc(C(F)(F)F)cc3)CCN12 | inconclusive: 79.4 µM [inhibitor, partial curve, poor fit]
43 | O=C(NCc1ccccc1F)c1ccc2c(c1)CN(Cc1ccc3c(c1)CCO3)CCO2 | active: 28.2 µM
44 | O=C1Nc2ccccc2CC12CCCCN2Cc1ccc(OC(F)(F)F)cc1 (stereo not given) | inconclusive: 56.2 µM [inhibitor, partial curve, poor fit]
45 | CC(=O)N1CCCC(c2nn(C)c(=O)n2Cc2ccccc2)C1 (stereo not given) | inactive
46 | Cc1ccc(S(=O)(=O)N2CC(c3nc(-c4ccncc4)no3)C2)cc1Cl | inconclusive: 89.1 µM [inhibitor, single point]
47 | COCCN1CCN(C[C@@H]2C=C(C)[C@H](Cc3nnc(COc4ccc(F)cc4)o3)C[C@H]2C(C)C)CC1 | inactive
48 | Cc1nc(CCNc2nc(-c3ccccn3)nc3c2c(C)nn3C)no1 | inconclusive: 89.1 µM [inhibitor, partial curve, poor fit]

Row | SMILES | Potency
49 | COc1ccc(-c2ccc(C(=O)N3CCN(C(=O)c4ccc(Cl)nc4)CC3)cc2)nn1 | inactive
50 | O=C(Cc1cccc(F)c1)N1CCC(n2cc(-c3nc(C4CC4)no3)nn2)CC1 | inconclusive: 70.8 µM [inhibitor, partial curve]
51 | COc1ncccc1-c1cnc2[nH]cc(CC(=O)NC(C)C)c2c1 | inconclusive: 89.1 µM [inhibitor, partial curve, poor fit]
52 | CCOC(=O)c1cccc(NC(=O)N[C@H]2CO[C@H]3[C@@H]2OC[C@H]3OC(=O)Nc2ccccc2)c1 | inconclusive: 56.2 µM [inhibitor, partial curve, poor fit]
53 | O=C(O)c1ccc(-c2cc(C(F)(F)F)ccc2Cl)cc1 | inactive
54 | Cc1ccc(OCC(=O)N2CCC(c3noc(-c4ccccn4)n3)C2)cc1 (stereo not given) | inactive
55 | O=C(Cc1ccc(N(Cc2ccc(F)cc2)C(=O)c2ccco2)cc1)NCCc1ccccc1 | inconclusive: 79.4 µM [inhibitor, partial curve, poor fit]
56 | NC(=O)[C@@H]1CCCN1C(=O)c1ccc2oc(-c3cccc(F)c3)nc2c1 | inconclusive: 70.8 µM [inhibitor, partial curve]
57 | O=C(Cn1nc2c(cc1=O)CCCCC2)N1CCN(Cc2ccccc2)CC1 | inactive
58 | CCNC(=O)Nc1ccc2c(c1)CN(Cc1cccc(OC)c1)C(=O)C(CC)O2 (stereo not given) | inconclusive: 50.1 µM [inhibitor, partial curve, poor fit]
59 | O=S(=O)(C1CC1)N1CC[C@@](O)(c2ccccc2)[C@H]2CCCC[C@@H]21 | inconclusive: 56.2 µM [inhibitor, partial curve, poor fit]
60 | CCc1cccc(OCC(=O)c2ccc3c(c2)N(CC(=O)NCCc2ccccc2)C(=O)CO3)c1 | inconclusive: 22.4 µM [inhibitor, full curve]
61 | CC1CCN(c2ccc(-c3cccc(NC(=O)NC(C)C)c3)nn2)CC1 | inconclusive: 89.1 µM [inhibitor, single point]
62 | Cc1cccc(CNC(=O)C2CCc3sc(C(=O)N4CCOCC4)cc3C2)c1 (stereo not given) | inconclusive: 79.4 µM [inhibitor, partial curve, poor fit]
63 | O=S(=O)(Cc1ccccc1F)N1CCC(C2CCNC2)CC1 (stereo not given) | inactive
64 | CCN1C(=O)C2CC3(CCN(Cc4cn[nH]c4-c4cccs4)CC3)CN2C1=O (stereo not given) | inactive
65 | CC(C)c1ccc([S+](=O)([O-])c2nnn3c2nc(NC2CC2)c2ccccc23)cc1 | inactive
66 | Cn1ccnc1C(O)c1cc2n(n1)CCN(Cc1ccc(CO)o1)C2 (stereo not given) | inactive
67 | CN1CC2(CCCN(C(=O)c3cn4cc(Cl)ccc4n3)C2)OC1=O (stereo not given) | inactive
68 | Cc1cc(C)c(CNC(=O)c2cc(Nc3ccccc3)cc3ncn(C)c23)c(=O)[nH]1 | inconclusive: 79.4 µM [inhibitor, partial curve, poor fit]
69 | Cc1ccc(C(=O)Nc2cc(-c3cccnc3)nn2-c2ccccc2)cc1 | inactive
70 | FC(F)(F)c1ccc(CN2CCC3(CC2)CC(c2ccccc2)=NO3)cc1 | inactive
